Measurements taken from PubChem BioAssay AID493208 (National Center for Advancing Translational Sciences (NCATS), 2011).
Out of some 44,000 compounds screened, about 340 (0.77%) were called active. Not shown: some 5% with an inconclusive outcome. Calls come from the whole dose curve; as a rule, active = well fitted inhibition curve with a large enough effect; inconclusive = small, poorly fitted or top-dose-only effect; inactive = flat fitted curve, though single readings scatter. This is one part of the list.

Experiment: Acumen qHTS Assay for Inhibitors of the mTORC1 Signaling Pathway in MEF (Tsc2-/-, p53-/-) Cells: Sytravon;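 note: plate controls were DMSO for no effect and rapamycin for full effect; nearly all actives have a fitted effect of over 50% in size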
Settings: phospho-rpS6 immunofluorescence/PI, 24 h; series mostly up to 38.3 µM; activity change, negative = inhibition: at the top concentration
In short: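 Compounds act on Tsc2-/-, p53-/- fibroblasts carrying an empty vector for 24 h before fixation and dual staining for phospho-S6 and DNA (propidium iodide). Values are percentages of cells above a rapamycin-defined pS6/PI threshold.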

Activity change, negative = inhibition, inactive:
COc1ccc(OC)c(NC(=O)CCNS(=O)(=O)c2cccc3nsnc23)c1 6.29%
COc1ccccc1CNc1ccc(-c2nc(-c3ccccn3)no2)cc1[N+](=O)[O-] -4.84%
O=C(NCc1ccc(F)cc1)c1c2c(nc3ccccc13)C(=O)N(C1CCCCC1)C2 3.98%
COc1cc(Cl)c(C)cc1NC(=O)Cn1cc(S(=O)(=O)N2CCN(c3ccccc3F)CC2)c2ccccc2c1=O -2.71%
Cc1cccc(CCNC(=O)C2CCC(CNS(=O)(=O)c3c(C)cc(C)cc3C)CC2)c1 (stereo unspecified) -4.18%
O=C(Cc1ccc(NC(=O)N2CCCCc3ccccc32)cc1)NCc1ccccc1Br -0.18%
N#Cc1ccc(OC(=O)c2cc(-c3ccc(Cl)cc3)on2)cc1 -17.2%
Cc1cccc(NS(=O)(=O)c2ccc3[nH]c(=O)[nH]c3c2)c1C -7.55%
O=C(CCC1N=C2c3ccccc3N=C(SCC(=O)Nc3ccccc3F)N2C1=O)NCc1ccco1 (stereo unspecified) -2.54%
Cc1ccc(NC(=O)CN(C)S(=O)(=O)c2ccc3c(c2)n(C)c(=O)c(=O)n3C)c(C)c1 10.9%
CCc1ccc(CN2C(=O)c3ccccc3C2C(=O)NC2CCCCCC2)cc1 (stereo unspecified) 1.41%
CC(C)(C)C(=O)Nc1ccc(-c2nc3ccccc3s2)cc1 2.97%
CCOc1ccc(-c2c(C)nn3c(C)c(C(=O)NCc4cccc(OC)c4)cnc23)cc1OCC -10.7%
Cc1oc(-c2ccccc2)nc1Cn1c(SCc2cccc(C(F)(F)F)c2)nc2cccnc21 1.27%
CCc1ccccc1Nc1nn2c(=O)c3ccc(C(=O)NC4CCC(C)CC4)cc3nc2s1 (stereo unspecified) 0%
CC(=O)Nc1ccc(S(=O)(=O)NCc2ccc3c(c2)CCN3C(C)=O)cc1 -11.8%
CCOc1cc(C(=O)N(Cc2nc(-c3ccc(C)cc3)no2)C(C)C)cc(OCC)c1OCC -2.43%
COc1ccc(-n2ncc(C(=O)N3CCN(Cc4ccccc4)CC3)c2C2CCN(C(=O)OC(C)(C)C)CC2)cc1 3.03%
CCc1cnc2c(c1SCc1c(F)cccc1Cl)c(=O)n(C)c(=O)n2C 1.77%
Cc1nn(C(=O)COc2ccc(Cl)cc2)c(C)c1Sc1ccccc1 -18.7%
CCOC(=O)c1ccc(NC(=O)CC2C(=O)N(c3ccccc3)C(=O)N2Cc2ccc(C)cc2)cc1 (stereo unspecified) 3.91%
COc1ccc(CCNC(=O)CCCn2c(=O)c3ccccc3n(CC(=O)Nc3cccc(C)c3)c2=O)cc1OC 0.312%
COc1ccc(C(=O)Nc2cnc3ccccn3c2=O)cc1 3.91%
CCOc1ccc(Nc2oc(-c3ccc(COc4ccc(OC)cc4)o3)nc2C#N)cc1 -6.83%
CCOC(=O)C1CCN(c2cc3c(cc2NC(=O)c2ccc(Cl)cc2)n(C)c(=O)n3C)CC1 1.98%
Cc1cc(Nc2ccccc2F)n2nc(-c3ccccc3)nc2n1 -1.46%
COc1ccc(S(=O)(=O)NCc2ccc3c(c2)CCN3C(=O)c2ccccc2)cc1OC 0.236%
COC(=O)c1ccc(Cl)cc1NC(=O)N1CC2CCCN2c2ccccc21 (stereo unspecified) -8.15%
COc1ccc(NC(=O)CN2C(=O)CCn3nc(-c4cccn4C)cc32)cc1 0.563%
Cc1cc(C)c(Nc2nc3ccccc3n3c(C)nnc23)c(C)c1 -1.43%
Cc1ccc(NC(=O)C(=O)NCC(c2cccnc2)N2CCN(Cc3ccccc3)CC2)cc1C (stereo unspecified) 5.35%
CCN(CC)C(=O)Cn1c(=O)cc(C)c2c(C)nn(-c3cccc(Cl)c3C)c21 -12.1%
COc1cccc(CNC(=O)C2CCC(CNS(=O)(=O)c3ccc4c(c3)CCCC(=O)N4)CC2)c1 (stereo unspecified) 1.41%
Cc1ccc(NC(=O)CSc2nnc3scc(-c4ccc(Cl)cc4)n23)cc1 1.92%
CCN(CC)CCCNc1oc(/C=C/c2ccc(OC)c(OC)c2)nc1C#N -5.43%
COc1ccc(NC(=O)Cn2cc(S(=O)(=O)N3CCN(c4ccccc4F)CC3)c3ccccc3c2=O)cc1Cl 0.667%
CCOC(=O)C1=C(CN2CCN(c3ccc(OC)cc3)CC2)NC(=O)NC1c1ccc(OC)cc1 (stereo unspecified) -3.1%
CNc1c(NC(=O)c2ccc(OC)c(OC)c2)c(=O)oc2ccccc12 -0.266%
CCOc1ccc(-c2cc(C(=O)N3CCN(c4cc(Cl)ccc4C)CC3)c3ccccc3n2)cc1 7.7%
Cc1cc(C)cc(NC(=O)NCCc2c(C)nn(C)c2C)c1 0%
Cc1cc2c(cc1S(=O)(=O)CCC(=O)N1CCC(C)CC1)OCC(=O)N2 -21.3%
Cc1nc(N2CCCC2)c2c(C(=O)N3CCN(c4ccccc4)CC3)c(C)oc2n1 5.84%
CCC(Cn1nnc2ccccc2c1=O)NC(=O)Nc1cc(C)cc(C)c1 (stereo unspecified) 1.89%
CC(C)C(=O)Nc1nnc2n1CCS2 -6.23%
CCOc1ccc(CNC(=O)c2cccc(NC(=O)N3CCSc4ncccc43)c2)cc1OC -3.88%
CCc1ccc(C(=O)c2cn(CC(=O)Nc3ccc(Cl)cc3)c3cc4c(cc3c2=O)OCO4)cc1 1.67%
CCOc1cc2sc(N3CCC(C(=O)Nc4ccc(CC)cc4)CC3)nc2cc1Br 0.695%
CC(=O)N1CCCc2cc(S(=O)(=O)N3CCCC(C(=O)N4CCN(c5cccc(Cl)c5)CC4)C3)ccc21 (stereo unspecified) 0.307%
Cc1ccc(S(=O)(=O)n2nc(C)c(S(=O)(=O)N3CCCCCC3)c2C)cc1 5.59%
Cc1ccc(C)c(CSc2nnc3[nH]c(=O)cc(C)n23)c1 -0.363%
COc1ccc(C)cc1NC(=O)c1noc2c1CSc1ccccc1-2 1.58%
COc1ccc(C2C(C(=O)Nc3ccccc3)=C(C)Nc3c(C(=O)Nc4ccccc4)cnn32)cc1 (stereo unspecified) 1.59%
COCCNC(=O)CCC(=O)NNc1nc2ccccc2c2nc(C)nn12 -7.57%
CS(=O)(=O)N1CCc2cc(C(=O)N3CCN(c4cccc(Cl)c4)CC3)ccc21 -4.61%
Cc1ccc(NC(=O)C2(c3cccs3)CCOCC2)cc1Cl -3.86%
COc1ccc(Br)cc1C1C(C(=O)Nc2ccc(C)cc2C)=C(C)Nc2ncnn21 (stereo unspecified) -11.5%
Cc1ccc(C)c(N2CCN(C(=O)c3cn(CC(C)C)c(=O)c4c3c3ccccc3n4C)CC2)c1 -1.96%
COCCCNc1nc(NCc2ccccc2OC)c2cnn(C)c2n1 0%
Cc1ccc(C)c(CSc2nc(-c3ccccc3F)nc3c2Cc2c(CO)cnc(C)c2O3)c1 3.98%
COc1ccc(NC(=O)Cn2c(=O)n(-c3cc(C)cc(C)c3)c(=O)c3oc4ccccc4c32)cc1OC -2.42%
COc1cccc(NC(=O)Cn2nnc(C(=O)NCc3cccs3)c2N)c1 -6.66%
O=C(NCCc1ccccc1)c1nn(-c2ccccc2F)nc1CO -3.72%
Cc1ccc2c(CNCCc3ccccc3)c(C(=O)O)n(Cc3ccccc3C)c2c1 0.143%
CCOc1ccc(C(=O)Cn2c(=O)n3nc(CCn4nc(C)cc4C)nc3c3cc(OC)c(OC)cc32)cc1 0.998%
Cc1cccc(N(C)c2nc3ccccc3c3nnc(C)n23)c1 -2.37%
COc1cc(NC(=O)c2cc(C3CC3)nc3c2c(C)nn3-c2ccccc2)cc(OC)c1 2.09%
COC(=O)Cn1c(=O)c2cccn2c2ccc(F)cc21 -11.5%
Cc1ccccc1N1CCN(S(=O)(=O)c2nnc(NC(=O)c3ccc(C(C)C)cc3)s2)CC1 4.02%
CCCCCn1c(NCc2ccc(OC)cc2)nc2ccccc21 -8.67%
Cc1ccc(NC(=O)CSc2nnc(-c3ccc([N+](=O)[O-])cc3)o2)c(C)c1 -7.07%
Cc1ccc(C(=O)c2cn(CC(=O)Nc3ccc(C(C)C)cc3)c3nc(C)ccc3c2=O)cc1 0%
CCS(=O)(=O)N1CCCC(C(=O)NCCOC)C1 (stereo unspecified) 0.94%
COc1ccc(-n2nc(C(=O)Nc3ccccn3)c3c4ccccc4n(C)c3c2=O)cc1 -9.25%
COc1ccccc1OC(C)C(=O)Nc1cccc(-c2nc3ccccc3s2)c1 (stereo unspecified) 0%
CCOC(=O)c1ccc(NC(=O)c2cnc3c(-c4ccc(F)cc4)c(C)nn3c2C)cc1 -1.35%
Cc1cc(C)n(-c2nc3ccccc3nc2Nc2ccc(N(C)C)cc2)n1 -1.82%
CCOc1ccc(-c2nc3c(c(SCC(=O)Nc4ccccc4C)n2)Cc2ccccc2O3)cc1 1.41%
Cc1cc(C)cc(NC(=O)Cn2c(-c3cncs3)nc3ccccc32)c1 4.04%
CN(C)c1ccc(CNC(=O)c2ccc(Cn3c(SCc4ccccc4)nc4cccnc43)cc2)cc1 -6.51%
Cc1ccccc1CNC(=O)c1ccc2c(c1)c(C)c(C)n2C 6.89%
CCc1ccc(CNC(=O)c2cnc3sc(N4CCCC4)nn3c2=O)cc1 -0.158%
Cc1ccc(Cl)cc1NC(=O)C1CCN(c2nnc(C)c3c(C)n(-c4ccccc4)nc23)CC1 0.444%
Cc1ccccc1Cn1nnc2c(=O)[nH]c(C3CCN(C(=O)c4ccc(F)cc4)CC3)nc21 1.05%
Cc1cc(C)c(Cn2c3ccccc3c3cnn(CC(=O)NCc4cccs4)c(=O)c32)c(C)c1 2.3%
CCC(C)NC(=O)CCCN1C(=O)CCn2nc(-c3cccn3C)cc21 (stereo unspecified) -6.1%
CCc1cccc(NC(=O)COC(=O)c2cn(CC)c3nc(C)ccc3c2=O)c1 -2.8%
CCCc1cc(=O)[nH]c(SCC(=O)N2CCN(c3ccccc3)CC2)n1 -2.16%
COc1ccc(CNC(=O)CSCc2nc(-c3ccccc3C)oc2C)cc1 -10.2%
COc1ccc(CNC(=O)c2ccc(-c3nc(CSc4ccccc4)c(C)o3)cc2)cc1OC -0.937%
CC(C)c1nn2c(=O)cc(COC(=O)c3ccc(NC(=O)COc4ccccc4)cc3)nc2s1 3.82%
COc1ccccc1C(=O)Nc1ccccc1OCc1cc(=O)n2c(C)csc2n1 -13.9%
COc1ccc(NC(=O)CN2C(=O)CCn3nc(-c4cccn4C)cc32)cc1Cl 3.11%
O=S(=O)(c1ccc(-c2cc(C(F)(F)F)on2)s1)N1CCN(c2ccccc2F)CC1 0.139%
CC(=O)Nc1nonc1-c1nnc(SCC(=O)Nc2ccc(C)cc2)n1-c1ccccc1 0%
CCOC(=O)c1sc2cccc(F)c2c1S(=O)(=O)NCc1ccccc1Cl -11.1%
O=C(CS(=O)(=O)c1cccc2nsnc12)N1CCN(c2cccc(Cl)c2)CC1 -0.17%
